# Measured values: ChEMBL document CHEMBL4888484, “Replenishing the malaria drug discovery pipeline: Screening and hit evaluation of the MMV Hit Generation Library 1 (HGL1) against asexual blood stage Plasmodium falciparum ,using a nano luciferase reporter read-out” (2022)
# In all, about 150,000 compounds went through this assay and about 540 (0.36%) showed an effect of 50% or more. The list shows a part of the results.
# System: Plasmodium falciparum
# Assay: Primary screen in NF54 nanoGlo assay, in single point, at 2uM, 72h; a lower Z score goes with more inhibition
# Assay type: functional, Erythrocyte
# Details: timepoint 72 hour
Structure (SMILES),% Inhibition,Z score
COCCN1CCN2C(=O)[C@H](Cc3ccccc3)N(C(=O)CCn3cccn3)C[C@H]2C1=O,-18%,1.59
Cc1c(NC(=O)C2=COCCC2)cccc1N(C)C,-6%,0.99
CN(C)[C@@H](CNS(=O)(=O)c1cc2c(cc1Br)NC(=O)CO2)c1ccc(F)cc1,-31%,3.17
Cc1ccc(-n2nc(C(=O)N(C)C3CCCCC3)c(=O)n(Cc3cccc(Cl)c3)c2=O)cc1,-14%,1.21
O=S(=O)(c1cnn(CC2CC2)c1)N1CCCN(c2ccc(F)c(F)c2)CC1,-6%,0.47
O=C(NCCN1CCCCC1=O)c1cc(Cn2ccc3ccccc32)[nH]n1,2%,-0.34
CCCc1cnc(C)nc1N1CC[C@H](N2CCOCC2)[C@H](CCC(=O)O)C1,7%,-1.31
CC(C)c1ccc(O[C@@H](C)c2nc(C3CC3)no2)cc1,-8%,1.17
Cc1ccc(-c2nc(CNC(C)C(C)n3cccn3)cs2)o1 (stereo not drawn),-8%,0.83
c1cn(C[C@@H]2CCCN2c2nc(C3CCCC3)ns2)nn1,32%,-4.66
O=C(CNC(=O)c1cccnc1)NC1CCC(Oc2ncccc2Cl)CC1 (stereo not drawn),-5%,0.47
Cc1nc(NC(=O)CC2=CCCCC2)n(C)n1,5%,-0.53
O=C(CC1CCCO1)N1CCc2sccc2C1c1ccccc1 (stereo not drawn),6%,-1.2
COc1cc(C)ccc1OS(=O)(=O)CC12CCCN(CC1)C2 (stereo not drawn),-12%,1.67
O=C(Nc1nc(-c2ccc(Cl)s2)ns1)c1ccccc1,5%,-0.79
CCc1nn(C)c2[nH]nc(NC(=O)c3cc(C(C)C)n(C)n3)c12,-1%,0.09
CCC[C@@H](C#N)NC(=O)c1ccnc(C(F)(F)F)c1N,2%,-0.37
O=S(=O)(Nc1ccc2nncn2c1)c1cc(F)ccc1Cl,27%,-3.64
O=C(NCC1CCCOC1)C1CCCN1CC(F)(F)F (stereo not drawn),4%,-0.56
CN(C)CCNC(=O)c1ccc(-c2c(-c3ccc(F)cc3)ncn2C2CCCC2)o1,5%,-0.71
O=C(CCCC(=O)N1CCC2(CC1)CC2(F)F)c1ccccc1,15%,-1.94
O=c1nc(-c2ccccc2)c(-c2ccccc2)nn1C[C@H](O)c1ccccc1F,-10%,1.91

Structure (SMILES),% Inhibition,Z score
O=C1NCCCC[C@@H]1N(Cc1cccc(OCCc2ccccc2F)c1)S(=O)(=O)c1cccs1,-1%,0.24
Cc1noc2ncnc(N3CCN(S(C)(=O)=O)CC3)c12,11%,-1.36
Cc1cccc(CN2[C@H](CNC(=O)c3cc(C)on3)CN(C)C(=O)[C@@H]2C)c1,7%,-0.97
COC(C)(C)CCNC(=O)c1ccc(O)cc1C,-25%,2.2
O=C(c1cccc(-c2nccs2)c1)N1CCCO[C@@H](CN2CCCC2)C1,-13%,1.42
Cc1nc(CC(C)C)c(C(=O)Nc2snc(C)c2C#N)s1,20%,-2.49
CN1C[C@H]2CC[C@@H](C1)N(Cc1cnc(NCc3ccccc3)nc1)C2,13%,-2.09
C#CCOc1ccc(C(C)N[C@H](CO)C(C)C)cc1 (stereo partly drawn),-3%,0.35
CN1C(=O)[C@]2(CC(=O)Nc3c2cnn3-c2nc3ccccc3s2)c2cc(F)ccc21,-6%,0.73
CCOC(=O)N1CCC(NC(=O)c2cnccn2)CC1,-10%,1.35
CCOc1ccc(C2CC2N=C(N(C)C)N(C)C)cc1 (stereo not drawn),-11%,1.26
O=C1N(c2ccccc2)Cc2nn(Cc3cccc(Cl)c3)c(=O)n21,6%,-1.22
COCCN1CC2(CCN(S(=O)(=O)c3ccc(F)cc3F)CC2)[C@H]1c1ccncc1,-7%,1.16
O=C(CCn1ccc2ccccc21)N1CCC[C@@H]1CO,-1%,0.17
CN1C[C@H](CNc2nnc(-c3ccccc3)s2)OCC1=O,-15%,2.53
Cc1cccc(NCCCc2nnc3ccccn23)n1,-8%,0.81
Nc1ncccc1-c1nc2ncccc2o1,-4%,0.59
c1csc(-c2nc(CCn3cnc4ccccc43)no2)c1,-2%,0.27
CN(CCN1CCOC1=O)c1ccnc2c(F)cccc12,-6%,0.94
c1ccc(/C(=C(\c2ccccc2)c2ccncc2)c2ccncc2)cc1,-7%,0.87
COc1ccccc1CNC(=O)Cn1cc(OC)c(=O)cc1CO,-10%,1.3
Cc1ccc(NC(=O)C(=O)c2ccc[nH]2)c(Cl)c1,-18%,1.65
